# In all, about 310,000 compounds went through this assay and about 2,200 (0.71%) showed an effect of 50% or more. Effects have a minus sign here. This is one part of the list.
# Target: human ether-à-go-go-related gene (hERG) potassium channel (human, UniProt Q12809)
# Test: primary screen, population patch clamp on CHO cells stably expressing hERG
# human ether-à-go-go-related gene (hERG) potassium channel, sequence (Q12809 whole entry, looked up): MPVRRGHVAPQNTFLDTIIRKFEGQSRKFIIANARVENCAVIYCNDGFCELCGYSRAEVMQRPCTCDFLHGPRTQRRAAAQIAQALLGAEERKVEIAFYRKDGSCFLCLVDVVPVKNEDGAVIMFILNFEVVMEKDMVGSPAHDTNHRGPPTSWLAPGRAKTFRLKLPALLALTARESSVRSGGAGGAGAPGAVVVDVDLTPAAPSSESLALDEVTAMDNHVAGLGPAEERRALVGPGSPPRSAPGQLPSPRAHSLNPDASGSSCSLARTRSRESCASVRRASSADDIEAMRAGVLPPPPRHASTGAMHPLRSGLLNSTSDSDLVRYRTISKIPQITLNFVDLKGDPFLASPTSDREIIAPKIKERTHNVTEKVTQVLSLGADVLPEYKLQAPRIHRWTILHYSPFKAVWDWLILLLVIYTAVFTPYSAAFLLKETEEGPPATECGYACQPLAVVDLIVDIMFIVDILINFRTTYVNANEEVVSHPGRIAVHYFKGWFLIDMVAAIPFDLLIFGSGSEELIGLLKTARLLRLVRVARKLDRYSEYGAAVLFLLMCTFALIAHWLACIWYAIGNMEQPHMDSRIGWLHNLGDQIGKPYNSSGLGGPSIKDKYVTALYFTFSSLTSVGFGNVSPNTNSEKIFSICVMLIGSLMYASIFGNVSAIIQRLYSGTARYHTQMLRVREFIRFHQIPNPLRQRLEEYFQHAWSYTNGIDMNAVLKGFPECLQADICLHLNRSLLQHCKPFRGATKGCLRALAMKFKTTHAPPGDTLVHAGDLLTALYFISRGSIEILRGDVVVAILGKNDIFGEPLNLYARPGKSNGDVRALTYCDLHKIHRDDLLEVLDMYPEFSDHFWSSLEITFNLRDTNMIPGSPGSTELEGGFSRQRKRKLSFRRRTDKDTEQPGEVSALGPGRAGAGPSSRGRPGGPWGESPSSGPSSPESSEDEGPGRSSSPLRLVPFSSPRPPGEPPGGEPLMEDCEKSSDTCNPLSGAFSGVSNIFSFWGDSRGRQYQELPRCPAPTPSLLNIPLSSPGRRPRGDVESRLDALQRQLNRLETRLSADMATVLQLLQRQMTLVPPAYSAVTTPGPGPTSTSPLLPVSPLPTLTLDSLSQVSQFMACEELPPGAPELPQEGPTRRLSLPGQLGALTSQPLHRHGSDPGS
row,SMILES,"hERG current change (%, negative = inhibition) at 1uM"
1,COc1cc(NC(=O)c2ccccc2[N+](=O)[O-])ccc1NC(=O)c1cc2ccccc2o1,13.2%
2,COc1ccc(N(CC(=O)Nc2c(C)n(C)n(-c3ccccc3)c2=O)S(=O)(=O)c2ccc(F)cc2)cc1,0.402%
3,Cc1cc(C)cc(OC(C)C(=O)NCCCn2ccnc2)c1 (centres unmarked),9.27%
4,O=[N+]([O-])c1ccc(/C=N/NC(=S)Nc2ccccc2C(F)(F)F)o1,-0.186%
5,COc1ccccc1N1CCN(C2CC(=O)N(c3ccc(F)cc3)C2=O)CC1 (centres unmarked),11.3%
6,COc1ccc(/C=N/N2C(C)CCCC2C)cc1OC (centres unmarked),13.5%
7,CCOC(=O)C1C(c2ccc([N+](=O)[O-])cc2)C2C(=O)NN=C2CC1(C)O (centres unmarked),15%
8,COC(=O)c1ccc(N2CCOCC2)c(F)c1,10%
9,CCN(CC(=O)Nc1cc(Cl)ccc1C)C(=O)CCOc1ccc(C)cc1,12%
10,COCc1cc(C)nc(OCC(=O)N/N=C/c2ccccc2)c1C#N,8%
11,Nc1c(C(=O)NCc2ccco2)c2nc3ccccc3nc2n1Cc1ccccc1,11.4%
12,N#Cc1ccc(C(CC(=O)O)N2Cc3ccccc3C2=O)cc1 (centres unmarked),13.1%
13,COCCNC(=O)c1ccc(NC(=O)C2(c3ccccc3)CCCC2)cc1,-0.294%
14,Cc1ccc(C)c(N2CCN(C(=O)c3ccc(N4CCOCC4)c([N+](=O)[O-])c3)CC2)c1,1.3%
15,O=C(NCCCl)NNc1c(Cl)cc(Cl)cc1Cl,6.45%
16,O=C(CN(Cc1ccccc1)C(=O)CNS(=O)(=O)c1ccccc1)NCc1ccco1,15.3%
17,O=C(CS(=O)(=O)Nc1ccc(F)cc1Cl)Nc1ccc(F)cc1Cl,14.2%
18,COc1ccccc1N(CC(O)Cn1c(C)nc2ccccc21)S(=O)(=O)c1ccccc1 (centres unmarked),3.24%
19,CCCCNC(=S)NNC(=O)c1csc(C)c1C,-1.96%

row,SMILES,"hERG current change (%, negative = inhibition) at 1uM"
1,O=C(Nc1ccc(C(F)(F)F)cc1)C1CCN(c2cnccn2)CC1,10.6%
2,Cc1cc(C(=O)Nc2cccc(C)c2C)c2ccccc2n1,9.46%
3,COc1ccc(Nc2nnc(Cc3ccccc3)c(=O)[nH]2)c(OC)c1,8.03%
4,COc1ccccc1CC(=O)N(CCC#N)CCC#N,-3.58%
5,CC1CCCCN1CC(=O)NC(=O)NCc1ccccc1 (centres unmarked),10.7%
6,O=C(CSc1ccc(-c2ccco2)nn1)N1CCCCC1,6.81%
7,Clc1ccc(Cc2nnc(-c3cccs3)o2)cc1,-0.479%
8,COc1ccc2cc(S(=O)(=O)Nc3ccccn3)ccc2c1,13.9%
9,CC1(NC(=O)C2CCCCC2)CCS(=O)(=O)C1 (centres unmarked),10.4%
10,O=C(c1ccco1)N1CCc2[nH]nc(-c3ccccc3)c2C1,14.9%
11,C=CCC1S/C(=N/N=C/c2cccs2)NC1=O (centres unmarked),7.37%
12,Cc1cccc(NC(=O)c2n[nH]c([N+](=O)[O-])c2Br)c1C,7.29%
13,O=C(C1CCN(S(=O)(=O)c2cccc3nsnc23)CC1)N1CCCCC1,17.7%
14,O=C(NCc1ccc(Cl)cc1)c1cccc2c1C(=O)N(CC1CCCO1)C2 (centres unmarked),-7.8%
15,O=C(Nc1ccccc1)C1=C[C@H](c2ccc3c(c2)OCO3)C[C@H](OCc2ccc(CO)cc2)O1,9.11%
16,Cc1ccc(C(=O)/C=C/c2c[nH]c3ccccc23)cc1,0.301%
17,COCCCn1c(SCC(=O)NC2CCCCC2)nnc1-c1ccco1,11.6%
18,CS(=O)(=O)Nc1ccc(C(=O)N2CCCC2)cc1,3.07%
19,CC(C)(C)c1ccc(C(=O)NNC(=O)Cc2ccccc2)cc1,19%

row,SMILES,"hERG current change (%, negative = inhibition) at 1uM"
1,Cc1ccc(Nc2nnc(SCC(=O)Nc3ccccc3[N+](=O)[O-])s2)cc1,8.96%
2,O=[N+]([O-])c1cc(S(=O)(=O)/N=C(/c2ccccc2)N2CCOCC2)ccc1Cl,4.79%
3,CCOc1ccc2[nH]c3c(N4CCN(c5ccccn5)CC4)ncnc3c2c1,-13%
4,Oc1ccccc1C(=S)N1CCN(c2cccc(Cl)c2)CC1,4.72%
5,O=C(CNS(=O)(=O)c1cccs1)N1CCc2ccccc2C1,6.19%
6,NC(=O)c1ccc(NC(=O)COC(=O)CC2Sc3ccccc3NC2=O)cc1 (centres unmarked),14.3%
7,Cc1nc(Nc2ccc(F)cc2)nc(Nc2ccc(F)cc2)c1[N+](=O)[O-],9.4%
8,CCN(CC(=O)NC(C)C)C(=O)c1ccc(S(=O)(=O)N(C)c2ccccc2OC)cc1,10.8%
9,O=C1NC(=O)N(Cc2ccccc2Cl)C(=O)/C1=C/c1cccs1,12.6%
10,O=C(Nc1cc(C(F)(F)F)ccc1Cl)c1cccnc1,2.82%
11,O=C(NC(=O)c1cnccc1C(F)(F)F)Nc1ccccc1,11%
12,C[C@]12CCC(=O)C=C1[C@H](O)C[C@@H]1[C@@H]2[C@@H](O)C[C@@]2(C)[C@H]1CC[C@]2(O)C(=O)CO,11.5%
13,CC(=O)C1=C(C)OC(N)=C(C#N)C1c1cc([N+](=O)[O-])ccc1Cl (centres unmarked),4.51%
14,COc1ccccc1CNC(=O)c1ccc(NC2=NC3CS(=O)(=O)CC3S2)cc1 (centres unmarked),15%
15,COCCn1c(SCC(=O)Nc2cc(C)on2)nc2ccccc21,10.4%
16,CC(C)NC(=S)N/N=C/c1sc(N2CCCCC2)nc1-c1cccs1,-2.03%
17,CCCCN(C(=O)CSc1nc2ccccc2n1CC)C1CCS(=O)(=O)C1 (centres unmarked),6.7%
18,COc1ccc2cc(OCC(=O)NNC(=O)Nc3ccc(OC)c(OC)c3)ccc2c1,8.81%
